Read counts are not given, so values of variants with three or more changes are uncertain.
B1: CPEB3 Ribozyme (parent)
chain: UAACAGGGGGCCACAGCAGAAGCGUUCACGUCGCAGCCCCUGUCAGAUUCUGGUGAAUCUGCGAAUUCUGCUGUAUAUCUC

Variants of: B1
Test: self-cleavage, relative activity (ratio to wild type); higher = more cleavage; in vitro, sequencing
Outline: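 CPEB3 self-cleaving ribozyme mutant libraries were made by rounds of error-prone PCR, barcoded, and transcribed in vitro with T7 RNA polymerase for 5 hours at 37°C. Cleavage occurred during transcription and a 15 min DNase I step before EDTA stop. RNAs were reverse transcribed with template switching and Illumina-sequenced, with DNA sequencing mapping barcodes to variants. Relative activity is the variant's cleaved/total read fraction divided by wild type's (minimum 5 reads), averaged across three batches.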

Row | Variant | self-cleavage
1 | G30C U48C U67A | 0.13
2 | G30C U66A U74C U80C | 0.34
3 | G30C U66C U69A | 0.06
4 | G30U A45G U67A | 0.13
5 | G30U C37U U54G U67A | 0.07
6 | G30U C39U U49C A57U U60C G61C | 0.06
7 | G30U U31A A64G U69A | 0.17
8 | G30U U41C C59A | 0.13
9 | G30U U48A U72C | 0.14
10 | U31A A35G C50U U69C U72A | 0.3
11 | U31A A35G U43C U66C U78C | 0.15
12 | U31A A35G U60C | 0.93
13 | U31A A35G U67A U78C | 0.82
14 | U31A A35U U48C U49C U51C | 0.08
15 | U31A A35U U54C A64U | 0.15
16 | U31A A45C A47G | 0.13
17 | U31A A45G A57G U72A | 0.13
18 | U31A A45G U49C U51C U66C U80A | 0.08
19 | U31A A45G U76C | 0.27
20 | U31A A45G U76C U80G | 0.36
21 | U31A A45U A56G A57G U66C | 0.07
22 | U31A A56G U69C | 0.2
23 | U31A A56U U72C | 0.22
24 | U31A A56U U76C U78C | 0.18

Row | Variant | self-cleavage
25 | U31A A64C A75G | 0.06
26 | U31A A64G U78A | 0.42
27 | U31A C32A U51C A64U | 0.14
28 | U31A C37G U51C | 0.69
29 | U31A C37U U51C U72C U74C | 0.27
30 | U31A C38A U60A U67C U69C | 0.05
31 | U31A C40A U48C | 0.08
32 | U31A C44A C59U A64G A75G | 0.03
33 | U31A C44A U58C U66C | 0.12
34 | U31A G33A A35G | 0.2
35 | U31A G33A U41A U49C U54A U58C | 0.12
36 | U31A G33A U58C U66C U76C U78C | 0.07
37 | U31A G36A A75U | 0.17
38 | U31A G46A U54G U74C | 0.14
39 | U31A U41A C44U A45U | 0.13
40 | U31A U41A U48C U69C | 0.11
41 | U31A U41C A56G A65G U67C | 0.16
42 | U31A U41C G61A | 0.44
43 | U31A U41C U72G | 0.43
44 | U31A U41C U74C | 0.54
45 | U31A U41G U76A | 0.16
46 | U31A U43A U49C U60G U72A U76A | 0.04
47 | U31A U43A U54C U58A | 0.31
48 | U31A U43A U67C U80C | 0.23

Row | Variant | self-cleavage
49 | U31A U43C A47G U80C | 0.2
50 | U31A U43C U51C G52C A64U | 0.33
51 | U31A U43C U66G U69C | 0.15
52 | U31A U43C U69A U80A | 0.09
53 | U31A U48C A65U | 0.16
54 | U31A U49C A75G | 0.22
55 | U31A U49C U51A C59A U67A U78C | 0.08
56 | U31A U49G G53C | 0.22
57 | U31A U51A A64G U78C | 0.27
58 | U31A U51C U60A | 0.2
59 | U31A U51C U74G U78C | 0.78
60 | U31A U51G G70A | 0.22
61 | U31A U54A U67C | 0.16
62 | U31A U54A U72C | 0.68
63 | U31A U54C U74C U78C | 0.83
64 | U31A U54G A57G | 0.23
65 | U31A U58C U69C U72C | 0.12
66 | U31A U60C A65G | 0.17
67 | U31A U66A U74C | 0.45
68 | U31A U67A C79A | 0.23
69 | U31A U67C U72C | 0.35
70 | U31A U69G C81U | 0.24
71 | U31C A35G A45U A56U U72A | 0.18
72 | U31C A35G G63A A64G U80A | 1.18

Row | Variant | self-cleavage
73 | U31C A35G U43A U69C | 0.76
74 | U31C A35G U48C U72A G73U | 1.01
75 | U31C A35G U78C | 1.19
76 | U31C A35U A45U | 0.15
77 | U31C A35U A56U A64U | 0.07
78 | U31C A35U A57U | 0.14
79 | U31C A35U C37A A57G U60C | 0.12
80 | U31C A35U C40U | 0.12
81 | U31C A35U G55U | 0.23
82 | U31C A35U U41A U43A U67C | 0.12
83 | U31C A45C A47U U80C | 0.12
84 | U31C A45G U51C U67C U78C | 0.47
85 | U31C A45G U54A A56G A64G U72C U76C | 0.12
86 | U31C A45G U67C U72C | 0.19
87 | U31C A45G U67C U78C | 0.28
88 | U31C A45G U80A | 0.74
89 | U31C A45U A47U U69A | 0.15
90 | U31C A45U U49C U60A | 0.34
91 | U31C A47G U49A A56G U60A | 0.14
92 | U31C A47G U49G U51A A57G A77G U80A | 0.11
93 | U31C A47U U58C U60A | 0.09
94 | U31C A56G A64U C68U | 0.15
95 | U31C A56G G63C A64C U69A | 0.25
96 | U31C A56G G73C | 1.07

Row | Variant | self-cleavage
97 | U31C A56G U60A A65G U78C | 0.11
98 | U31C A56G U60C | 0.26
99 | U31C A56G U80C | 0.49
100 | U31C A57G G73A U78C | 1.25
101 | U31C A64G U72C U80A | 0.77
102 | U31C A64G U76C | 0.74
103 | U31C A64U U69C | 0.27
104 | U31C A64U U78C | 0.17
105 | U31C A65G C79G U80C | 0.39
106 | U31C A75C U78C | 0.69
107 | U31C C32G U41C A45U U69C C71G U80C | 0.07
108 | U31C C32U U41C A45U A57G U72G U74C | 0.05
109 | U31C C34U U48C | 0.14
110 | U31C C34U U80C | 0.43
111 | U31C C38A C44G | 0.17
112 | U31C C38U G52A | 0.78
113 | U31C C38U U80A | 0.82
114 | U31C C39A A45C U60C | 0.16
115 | U31C C39U U72C U76A | 0.35
116 | U31C C40A U60C C68A | 0.12
117 | U31C C40U A45U U51A | 0.06
118 | U31C C50A A75G | 0.18
119 | U31C C62A C81A | 0.16
120 | U31C C71U C81U | 0.72

Row | Variant | self-cleavage
121 | U31C G33A A47G U80C | 0.42
122 | U31C G33A A64G C71U U72A | 0.11
123 | U31C G33U U41A C71A | 0.06
124 | U31C G33U U51A A56G U80C | 0.1
125 | U31C G53C U74C C81U | 1.16
126 | U31C G55A A64G | 0.19
127 | U31C G55A U72A | 0.24
128 | U31C U41A A45G G46C A47G U67A U80A | 0.12
129 | U31C U41A A47G U78C | 0.19
130 | U31C U41A C79U | 0.12
131 | U31C U41A U43A U51C C59A | 0.15
132 | U31C U41C A45G U67C U78C | 0.11
133 | U31C U41C U67C | 0.5
134 | U31C U41C U69C | 0.43
135 | U31C U41C U76C | 1.02
136 | U31C U41C U80A | 1.03
137 | U31C U43A U58C | 0.24
138 | U31C U43C G73A | 1.13
139 | U31C U43C U60A | 0.2
140 | U31C U43C U74A | 0.63
141 | U31C U43G A47U U54C A56U | 0
142 | U31C U43G U74A | 0.13
143 | U31C U48C C50A A65G U72A U78A | 0
144 | U31C U49A A75U | 0.55

Row | Variant | self-cleavage
145 | U31C U49C A65G U72A A77G | 0.07
146 | U31C U49C G53C | 0.27
147 | U31C U51A U74A U80C | 1.21
148 | U31C U51C A56G G63A U69C U76C | 0.29
149 | U31C U51C U54C U69G | 0.31
150 | U31C U54A U66C | 0.44
151 | U31C U54C U60C | 0.26
152 | U31C U54C U76C A77U | 1.04
153 | U31C U58C A64U U74C | 0.11
154 | U31C U58C U72A | 0.18
155 | U31C U60A A65G | 0.17
156 | U31C U60A C79U | 0.53
157 | U31C U60A U67C U76A A77U | 0.11
158 | U31C U66A U67C | 0.11
159 | U31C U67C U74C A75U | 0.14
160 | U31C U69C U78C | 0.36
161 | U31C U72A G73U | 1.11
162 | U31C U76C U80C | 1.08
163 | U31G A35C A45U U49C U67C C71U | 0.05
164 | U31G A35G U41C U67C | 0.19
165 | U31G A35G U43C U54C U60C | 0
166 | U31G A35U C44U U72C A75C | 0.15
167 | U31G A35U U48C A56G A64U | 0.06
